Several values for one entry are separate records, joined by “and”; a condition that tells them apart may be missing. Identical values can stand only once. In all, about 360,000 compounds went through this assay and about 2,600 (0.72%) were called active. Inconclusive results, whose numbers are uncertain, are shown with a selection of clear calls. The call rests on the fitted dose curve; in most records, active means well fitted inhibition curve with a large enough effect; inconclusive means small, poorly fitted or top-dose-only effect; inactive means no such curve, though single readings can be large or run the other way. A potency beside an inconclusive call is a rough fit, not a confirmed value.
Assay: Primary qHTS for Inhibitors of ATXN expression; further: nearly all actives have a fitted effect of over 55% in size
Conditions: HEK-293 ATXN2-luciferase reporter, luminescence, 24 h; activity change, negative = inhibition: at 57 µM (top of the series)
In short: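 qHTS (up to 57 uM final) was run with 24 h compound exposure of reporter cells at 37 °C. Each well was multiplexed: SteadyGlo luminescence measured ATXN2-luciferase expression after a fluorogenic Gly-Phe-AFC viability readout (25 uM final).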
With `O=C(NNC(=S)Nc1ccc(C(=O)O)c(O)c1)c1ccncc1` the Potency was inconclusive: 35.5 µM [inhibitor, single point]. In the case of `O=C(Cc1ccc(NC(=O)N2CCCCc3ccccc32)cc1)NCc1ccccc1Br`, the “activity change, negative = inhibition” value is reported as inactive: -24.4%. In the case of `COc1ccc(Nc2c3c(nc4ccccc24)CCCC3)cc1OC`, the Potency is reported as inconclusive: 0.844 µM [inhibitor, partial curve, poor fit]. For `Cn1nnnc1SCCNCc1cc(Cl)ccc1OCc1ccccc1`, the “activity change, negative = inhibition” value was inactive: -12.2%. For `Cn1nc(-c2ccccc2F)c2cc(C(=O)NCc3ccc(Cl)cc3)sc21`, the Potency was inconclusive: 12.6 µM [inhibitor, partial curve]. With `CC(=O)NC(c1ccccc1)c1cc([N+](=O)[O-])c2cccnc2c1O` (stereo not given) the Potency was inconclusive: 26.7 µM [inhibitor, single point]. With `C=CC[C@@H](CC(=O)N(CCO)Cc1ccccc1)C(=O)N[C@H](COC(=O)[C@@H](CC=C)CC(=O)OC(C)(C)C)Cc1c[nH]c2ccccc12` the Potency was inconclusive: 31.6 µM [inhibitor, single point]. With `Clc1c(CSc2nc3ccccc3o2)nc2sccn12` the “activity change, negative = inhibition” value was inactive: 37%. For `COC(=O)c1ccc(C(=O)NC(=S)Nc2ccc3nc(SC)sc3c2)cc1`, the Potency was inconclusive: 6.31 µM [inhibitor, single point]. With `COc1ccccc1Cc1c(-c2ccc(OC)c(OC)c2)nc2ccc(Cl)cn12` the Potency was inconclusive: 31.6 µM [inhibitor, single point]. With `CCc1ccc(Nc2n[n+](-c3ccccc3)c(-c3c(Cl)cccc3Cl)s2)cc1` the Potency was active: 10 µM. In the case of `COc1ccccc1C(=O)Nc1ccc(NC(=O)c2cccs2)cc1`, the “activity change, negative = inhibition” value is reported as inactive: -8.3%. With `CCc1nnc(NC(=O)CSc2ncnc3c2cnn3-c2ccc(OC)cc2)s1` the Potency was inconclusive: 22.4 µM [inhibitor, single point]. In the case of `Cc1ccc(-n2ncc(Br)c(Br)c2=O)cc1`, the Potency is reported as inconclusive: 7.52 µM [inhibitor, full curve, poor fit]. In the case of `COc1ccc(Nc2cc(C(=O)NCCCN(C)Cc3ccccc3)c3ccccc3n2)c(OC)c1`, the Potency is reported as inconclusive: 22.4 µM [inhibitor, partial curve, poor fit]. With `Cc1cccc(N2CCN(S(=O)(=O)c3ccc4c(c3)n(C)c(=O)c(=O)n4C)CC2C)c1` (stereo not given) the Potency was inconclusive: 28.2 µM [inhibitor, partial curve, poor fit]. With `COc1cccc(N2CCN(C(=O)CC(C)(C)CC3=NS(=O)(=O)c4ccccc4N3)CC2)c1` the Potency was inconclusive: 28.2 µM [inhibitor, partial curve, poor fit]. For `Nc1ncnc2c(C3OC(CO)C(O)C3O)scc12` (stereo not given), the Potency was inconclusive: 0.316 µM [inhibitor, full curve]. For `COc1ccc(OC)c(C2c3c(-c4ccc(Br)cc4)n[nH]c3C(=O)N2c2ccc(Cl)cc2)c1` (stereo not given), the Potency was inconclusive: 39.8 µM [inhibitor, single point]. In the case of `Cc1ccc(C(=O)C(C(=O)/C=C/c2ccccc2)=C2SCCCS2)cc1`, the Potency is reported as active: 12.6 µM. With `CC1=Nc2ccccc2/C1=C/c1sc(=N)n(-c2nccs2)c1O` the Potency was inconclusive: 28.2 µM [inhibitor, single point]. With `Cc1nc(N/N=C/c2ccc(O)cc2)c2cnn(-c3ccccc3)c2n1` the “activity change, negative = inhibition” value was inactive: -13.9%. For `COC(=O)c1cc(=O)n2c(-c3ccc(OC)cc3)csc2n1`, the “activity change, negative = inhibition” value was inactive: 1.08%. For `C[C@@H]1C[C@H]2[C@@H]3CCC4=CC(=O)C=C[C@]4(C)[C@@]3(Cl)[C@@H](O)C[C@]2(C)[C@@]1(OC(=O)c1ccco1)C(=O)CCl`, the Potency was inconclusive: 39.8 µM [inhibitor, partial curve, poor fit] and inconclusive: 43.2 µM [inhibitor, single point] and inconclusive: 28.2 µM [inhibitor, single point]. With `O=C(CSc1nnnn1-c1ccccc1)Nc1nsc(-c2ccccc2)n1` the Potency was inconclusive: 35.5 µM [inhibitor, single point]. In the case of `COc1ccc2[nH]c3nc(SCC(=O)Nc4ccc5c(c4)OCO5)nnc3c2c1`, the Potency is reported as inconclusive: 39.8 µM [inhibitor, single point]. With `CCOC(=O)c1c(C)n(-c2ccccc2)c2ccc(OC(=O)c3cccc(Cl)c3)cc12` the “activity change, negative = inhibition” value was inactive: -1.08%. With `CCOc1ccc(C(=O)Nc2cccc(C(=O)O)c2C)cc1Cl` the Potency was inconclusive: 39.8 µM [inhibitor, single point]. For `Cc1ccccc1Oc1cc(-n2ncc(Cl)c(Cl)c2=O)ncn1`, the Potency was active: 7.94 µM. For `CN(C)c1ccc(-n2cccc2/C=C2/SC(=Nc3ccc(F)cc3)NC2=O)cc1`, the Potency was inconclusive: 31.6 µM [inhibitor, partial curve]. With `O=C(c1ccncc1)N1N=C(c2ccc(Br)cc2)CC1c1ccccc1O` (stereo not given) the Potency was inconclusive: 26.7 µM [inhibitor, partial curve, poor fit]. In the case of `C[C@H](NC(=O)c1nc[nH]c1C(=O)N[C@@H](Cc1ccccc1)C(=O)OC(C)(C)C)C(=O)OC(C)(C)C`, the Potency is reported as inconclusive: 39.8 µM [inhibitor, single point]. For `Cc1cc(C)n(CC(=O)N/N=C/c2cc([N+](=O)[O-])ccc2O)n1`, the Potency was inconclusive: 15.8 µM [inhibitor, partial curve, poor fit]. In the case of `Cc1cc(Br)ccc1NC(=O)CNC(=O)Cn1ncc(Cl)c(Cl)c1=O`, the Potency is reported as active: 4.74 µM. With `CCOC(=O)c1ccc(NC(=S)NCCc2ccc(OC)c(OC)c2)cc1` the “activity change, negative = inhibition” value was inactive: -15.3%. In the case of `Cc1ccc(S(=O)(=O)N(C)C)cc1NC(=O)COC(=O)Cc1cccs1`, the “activity change, negative = inhibition” value is reported as inactive: -8.9%. In the case of `Cc1ccc(C(=O)NCC(=O)Nc2ccncc2)cc1C`, the “activity change, negative = inhibition” value is reported as inactive: 3.54%. With `Cc1ccc(F)cc1C(=O)N1CCCC(c2cc(C(=O)Nc3ccccc3Cl)no2)C1` (stereo not given) the Potency was inconclusive: 14.1 µM [inhibitor, partial curve, poor fit]. With `COC(=O)N1C(=O)[C@](c2ccc(Cl)cc2)(C(C)C)N1C(=O)OC` the Potency was inconclusive: 28.2 µM [inhibitor, single point]. In the case of `COc1cc(CN2CCC(C(=O)NC(c3ccc(-c4ccccc4)cc3)c3cnccn3)CC2)cc(OC)c1` (stereo not given), the Potency is reported as inconclusive: 39.8 µM [inhibitor, single point].
On the % scale 0 is the no-effect control and ±100 the full control effect; potency means the concentration at half of the fitted maximal effect; tags describe the fitted curve by direction and shape.
